# Measurements as given in PubChem BioAssay (NCI).
#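 Values below derive from 48-hour exposures of cells grown in 96-well plates, with endpoints linearly interpolated between the two concentrations bracketing the appropriate inhibition level. GI50 is the concentration that inhibits growth by half. At the TGI there is no net growth.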
# System: NCI-H322M lung
# Test: NCI tumour cell line growth inhibition, 48 h
SMILES,GI50,TGI
Cc1cccc2c3c(sc12)C(c1ccc(F)cc1)C(C#N)=C(N)O3 (configuration not stated),0.481 µM,17.5 µM
C=C(C(=C)P(=S)(C(C)C)C(C)C)P(=S)(C(C)C)C(C)C,–,> 100 µM
O=C(O)c1nc2ccc(C(F)(F)F)cc2nc1Nc1ccc(F)cc1,–,81.6 µM
CCc1c(-c2ccc(OC)cc2)oc(OC)c(C)c1=O,–,> 100 µM
NC(Cc1ccc2nc3c4ccccc4c(=O)cc-3oc2c1)C(=O)O (configuration not stated),–,> 100 µM
NC1(Cc2ccc(Cl)cc2)CCN(c2ncnc3[nH]ccc23)CC1,4.09 µM,35.1 µM
O=C(/C(=C\I)c1ccccc1)c1ccccc1,–,17.7 µM
CCOC(=O)c1c(SC(=O)c2ccc(OC)cc2)n(-c2ccccc2)c(=S)n(-c2ccccc2)c1=O,–,> 100 µM
O=C(O)/C=C/c1c[nH]c(=O)[nH]c1=O,–,> 500 µM
Cc1cc2nc3c(C#N)c4c(c(-c5ccc(Cl)cc5)n3c2cc1C)CCC4,–,33 µM
CCc1nc(N)nc(N)c1-c1ccc(Cl)c(N=[N+]=[N-])c1,–,> 100 µM
O=C1CCCCC12CCC/C2=N\O (configuration not stated),–,> 100 µM
CC(C)(NC(=O)OCc1ccccc1)C(=O)OC(=O)C(C)(C)NC(=O)OCc1ccccc1,–,> 100 µM
COc1cc(-c2c3c(cc4c2OCO4)[C@@H](Nc2ccc(-c4ccc(-c5ccc(N[C@@H]6c7cc8c(cc7C(c7cc(OC)c(O)c(OC)c7)[C@H]7C(=O)OC[C@H]67)OCO8)cc5)cc4)cc2)[C@H]2COC(=O)[C@@H]2C3)cc(OC)c1O (some centres not stated),–,10.6 µM
COc1nc2ccc(COc3ccc(C(=O)O)cc3)cc2nc1OC,–,> 100 µM
C[C@H](CCC1SC1(C)C)C1CCC2(C)C3=C(CC[C@]12C)[C@@]1(C)CC[C@H](O)C(C)(C)C1CC3 (some centres not stated),–,> 100 µM
CC1=Nc2c([nH]c(=S)[nH]c2=O)NC(c2c(Cl)cccc2Cl)C1 (configuration not stated),–,13 µM
CCCCCCNCc1cc(C(C)(C)C)cc(CNCCCCCC)c1O,1.66 µM,3.08 µM
COCCOCCOCCOc1cccc2c1C(=O)c1cccc(OCCOCCOCCOC)c1C2=O,–,> 100 µM
COc1cc2c(cc1OC)C(=O)/C(=C/c1cc(C)cc(C)c1)C2,–,> 100 µM
Cn1cc(C(=O)c2ccccc2)cc(C(=O)c2ccccc2)c1=O,–,> 100 µM
COC(=O)[C@H](Cc1cn(C)cn1)NC(=O)[C@H](C)NC(=O)Nc1cc(C(F)(F)F)cc(C(F)(F)F)c1,> 10 µM,> 10 µM
Cl.Fc1c[c-]c(-c2ccccn2)c(F)c1.[Pt].c1ccc([PH+](C[PH+](c2ccccc2)c2ccccc2)c2ccccc2)cc1,0.316 µM,1.1 µM
COc1cccc(N2C(=O)C3C4C=C5c6ccccc6N(c6ccccc6)C5(C3C2=O)[C@H]2C(=O)N(c3cccc(OC)c3)C(=O)[C@@H]42)c1 (some centres not stated),–,> 100 µM

SMILES,GI50,TGI
CC(Oc1ccccc1)C(=O)NNC(=O)OC(C)(C)C (configuration not stated),–,> 100 µM
COC(=O)C1OC(O[C@H]2CC[C@]3(C)[C@H]4CC=C5[C@@H]6CC(C)(C)CC[C@]6(C(=O)OC6OCC(O)C(O)C6OC6OC(C)C(OC7OCC(O)C(O)C7O)C(OC7OCC(O)(CO)C7O)C6O)[C@H](O)C[C@@]5(C)[C@]4(C)CC[C@H]3C2(C)C)C(O)C(O)C1O (some centres not stated),–,6.2 µM
Cc1ccc(C2NC(=O)c3ccccc3N2)c(C)c1 (configuration not stated),–,> 100 µM
CCOc1ccc2c(c1)c(CC(=O)O)cn2C,–,> 100 µM
COc1cc2c(/C=C3/C(=O)Nc4ccc(Cl)cc43)c(Cl)[nH]c2cc1C,–,15.5 µM
CN(CCCCCl)P(=O)(OCc1ccc([N+](=O)[O-])o1)OCC1OC(n2cnc([N+](=O)[O-])c2N)C(O)C1O (configuration not stated),> 100 µM,> 100 µM
COc1ccc(C2C(=O)c3c(OC)cc(OC)cc3OC2c2cccnc2)cc1 (configuration not stated),–,> 100 µM
CCCCOP(C)(=O)C(NC(=O)OCC)(C(F)(F)F)C(F)(F)F (configuration not stated),–,> 100 µM
CN(CCc1ccccn1)C(=S)N/N=C(\c1ccccc1)c1ccccn1,–,3.66 µM
O=c1[nH]c(=O)n(COCc2ccccc2)cc1Nc1ccc(Br)cc1,–,> 100 µM
CC1OC(OC2C(O[C@H]3CC[C@@]4(C)C(=CC[C@H]5[C@@H]6C[C@@H]7O[C@]8(CC[C@@H](C)CO8)[C@@H](C)[C@@H]7[C@@]6(C)CC[C@@H]54)C3)OC(CO)C(O)C2O)C(O)C(O)C1O (some centres not stated),–,5.21 µM
COC1(CC[C@@H](C)COC2OC(CO)C(O)C(O)C2O)O[C@H]2C[C@H]3[C@@H]4CC=C5C[C@@H](OC6OC(CO)C(O)C(OC7OC(CO)C(O)C(O)C7O)C6OC6OC(C)C(O)C(O)C6O)CC[C@]5(C)[C@H]4CC[C@]3(C)[C@H]2[C@@H]1C (some centres not stated),–,13.5 µM
CCN1CCC(CNC(=O)c2ccc(N)cc2)N1CC (configuration not stated),–,> 100 µM
COC(=O)Nc1nc2ccc(S(=O)(=O)N3CCOCC3)cc2[nH]1,–,> 100 µM
C/C(=N\O)c1cccc[n+]1Cc1ccccc1,–,> 100 µM
OCCN(CCO)c1cccc(N(CCO)CCO)n1,–,> 100 µM
O=C(NO)NCCCl,–,> 100 µM
Cc1ccc2c(c1)nc1n2C(N)=Nc2ccccc2S1,–,> 100 µM
Nc1nc(Cl)c(Cl)c(NCC2(O)CCC2)n1,–,> 100 µM
CC(C)(C)N/N=C(\C(=O)NC1=C(Cl)C(=O)c2ccccc2C1=O)C1C=CCS1(=O)=O (configuration not stated),–,31.3 µM
COc1ccc(-c2c(-c3ccccc3)c(C)nc3nc(SC)nc(SC)c23)cc1OC,–,> 100 µM
CCC1(CN(C)C)CC/C(=C\c2ccc(OC)c(OC)c2)C1=O (configuration not stated),–,> 100 µM
CC1=C(C)CC2(C=C(C(C)(C)C)C(=O)C(C(C)(C)C)=C2)SC1,–,86.2 µM
Cc1ccc(-n2nnnc2-c2cnc(N3CCOCC3)nc2-c2cccc(C(F)(F)F)c2)cc1,1.95 µM,15.1 µM

SMILES,GI50,TGI
CC1(C)Cc2c(Br)c(Br)c(Br)c(OCC(O)CN3CCN(c4ccccn4)CC3)c2O1 (configuration not stated),19.7 µM,43.7 µM
O=C1C(c2c(O)[nH]c3ccc(Br)cc23)=Nc2ccc(Br)cc21,–,70.1 µM
CC1(C)COC2=C(C1)C(=O)c1ccccc1C2=O,–,3.05 µM
CSc1nc(N)c2c(-c3ccccc3)c3c(nc2n1)CCCC3,–,> 100 µM
COC(=O)C1(SC)C2CCC3C2CCC31 (configuration not stated),–,> 100 µM
O=c1[nH]c(NCc2ccc(Cl)cc2)nc2nc[nH]c12,–,> 100 µM
O=Cc1ccc(-c2ccc(-c3nc4ccccc4s3)cc2)s1,> 100 µM,> 100 µM
[N-]=[N+]=CC(=O)OCCCCl,–,> 100 µM
CC(=O)/C=C/c1ccc(OCc2ccc(Cl)cc2)cc1,980 µM,> 1000 µM
Cc1nc2cc(Nc3nc(Nc4ccc(F)cc4)nc(N4CCOCC4)n3)ccc2n1Cc1ccccc1,8.21 µM,38.2 µM
CN(CCNC(=O)c1c[nH]c2c1Cc1ccccc1-2)CCNC(=O)c1c[nH]c2c1Cc1ccccc1-2,–,> 100 µM
CN1CCN(c2nc(-c3csc(-c4cccs4)n3)cc3ccccc23)CC1,1.69 µM,3.37 µM
C/C(=C/CC[C@]1(CO)CC[C@]2(C)[C@H](CC[C@@H]3[C@@]4(C)CC[C@H](OC5OC(CO)C(O)C(O)C5OC5OC(CO)C(O)C(O)C5O)C(C)(C)[C@@H]4CC[C@]32C)[C@H]1O)CO (some centres not stated),–,> 100 µM
NC(=O)NC1C(C(=O)O)N(Cc2ccccc2)C(=O)N1Cc1ccccc1 (configuration not stated),–,> 100 µM
COc1cc(OC)c2c(c1)OC(c1cccnc1)C(c1ccccc1)C2=O (configuration not stated),–,> 100 µM
NC(=O)c1sc(-n2cnc3cc(C(F)(F)F)ccc32)cc1OCc1ccccc1Br,> 25 µM,> 25 µM
OC1(c2ccc(Cl)cc2)c2ccccc2-c2nc3ccccc3n21 (configuration not stated),–,> 100 µM
NC(=O)CC(N=Cc1nc(-c2ccccc2)oc1O)C(=O)O (configuration not stated),–,> 100 µM
O=C1CSC(c2cccc(Cl)c2)N1c1ccc(-c2ccc(-n3c(-c4ccccc4)nc4ccccc4c3=O)cc2)cc1 (configuration not stated),–,> 100 µM
CC(C)=CC[C@]12CCN(C)[C@H]1N(S(=O)(=O)c1ccccc1)c1ccccc12,–,> 100 µM
Cc1nc2cc(Nc3ccccc3C(=O)O)ccc2s1,–,> 100 µM
CC(C)c1ccccc1SCc1cc(=O)cc(CSc2ccccc2C(C)C)o1,–,41.9 µM
COc1cccc(SSc2cccc(OC)c2C(=O)O)c1C(=O)O,–,> 100 µM
O=C(SCc1cccc2ccccc12)c1ccc(Cl)cc1,–,> 100 µM

SMILES,GI50,TGI
CCCCCCCCCCCCCC[n+]1ccc(C)cc1,1.75 µM,3.47 µM
C[C@@H](CO)NC(=O)c1cc(-c2ccc(Cl)cc2)nn(-c2cnn(C)c2)c1=O,29.5 µM,> 100 µM
COc1cc2oc3c(c(=O)c2c(O)c1/C=C/C(C)C)C(C=C(C)C)Oc1cc(O)ccc1-3 (configuration not stated),–,29.8 µM
CN(CCC(=O)/C(=C\c1ccccc1)c1ccc(Cl)cc1)Cc1ccccc1,7.92 µM,23.3 µM
CC1(C)O[C@@H]2C[C@H]3[C@@H]4C[C@H](F)C5=CC(=O)C=C[C@]5(C)[C@@]4(F)[C@@H](O)C[C@]3(C)[C@]2(C(=O)CO)O1,–,> 100 µM
CC(=O)c1ccc(NC(=O)C(=O)C(C#N)CC(C)(C)C=O)cc1 (configuration not stated),–,> 100 µM
Cc1[nH]c2cc(F)ccc2c1-c1nc2c3cccnc3c3ncccc3c2[nH]1,0.0457 µM,1.02 µM
COc1ccc(C(=O)C#Cc2c[nH]c(=O)[nH]c2=O)cc1,–,35.7 µM
O=c1c(Cc2ccc(Cl)cc2)nnc2sc(-c3ccc(-c4ccc(Cl)cc4Cl)o3)nn12,–,> 100 µM
Cc1ccc2nc(-c3ccc(C(C)(C)C)cc3)oc(=O)c2c1,–,> 100 µM
CCCCOC(=O)C1CC[C@H]2[C@@H]3CCc4cc(OC(=O)c5cccc6c(=O)c7ccccc7[nH]c56)ccc4[C@H]3CC[C@]12C (some centres not stated),–,18.7 µM
CN(C)c1cccc(F)c1C(=O)NC(=O)Nc1ccc(Cl)cc1,–,> 100 µM
Cc1cc(O)c(C2=NN(c3ccc(S(N)(=O)=O)cc3)C(/C=C/c3ccccc3)C2)cc1Cl (configuration not stated),5.73 µM,27.5 µM
CC1(C)OC2OC(C(COS(=O)(=O)C(F)(F)F)N=[N+]=[N-])C(OC(=O)c3ccccc3)C2O1 (configuration not stated),–,> 100 µM
CC1=CP(=O)(c2c(C(C)C)cc(C(C)C)cc2C(C)C)CCC1Cl (configuration not stated),–,29.1 µM
NCCN1C(=O)c2ccccc2C1c1ccc(Cl)cc1 (configuration not stated),–,> 100 µM
COc1ccc(C(=O)c2sc3nc(-c4cccs4)ccc3c2N)cc1OC,> 100 µM,> 100 µM
C(=Nc1ccc(-c2nc3ccccc3s2)cc1)c1ccc[nH]1,–,72.1 µM
CCn1c(CCl)nc2c1C(=O)c1ccccc1C2=O,–,11.5 µM
O=C(O)/C=C/c1ccc2c(c1)CC1(Cc3ccccc3C1)C2,–,> 100 µM
O=[N+]([O-])c1cc([N+](=O)[O-])c(Cl)cc1Cl,1.77 µM,3.29 µM
Cc1nc2sc(C(=O)c3ccc(Cl)cc3)c(N)c2c(-c2ccccc2Cl)c1C(=O)Nc1ccccc1,–,58.1 µM
COc1c(N2CCN(CN3C(=O)C(=O)c4cc(Cl)ccc43)C(C)C2)c(F)cc2c(=O)c(C(=O)O)cn(C3CC3)c12 (configuration not stated),17.5 µM,> 100 µM
CCN1C(=NCCO)NS(=O)(=O)c2ccccc21,–,> 100 µM
